Measured values reported in US20070014803A1 (ARBOR VITA, published 2007).

Target: T1, HIV-1 Peptide 1904 (HIV-1)
T1 construct: also called HIV peptide 1904
Assay: MATRIX screen of GST-PDZ array, modified G assay ELISA; 'Intensity of Hit'

B1: GoRASP1 d1, GST fusion (other)
chain: MGLGVSAEQPAGGAEGFHLHGVQENSPAQQAGLEPYFDFIITIGHSRLNKENDTLKALLKANVEKPVKLEVFNMKTMRVREVEVVPSNMWGGQGLLGASVRFCSFRRASE
notes: also called GORASP1 (PDZ #1)
binding result: binds
